# A lower IC50 marks a more sensitive line; a limit (>, <) means that the fit lies beyond the doses tested. AUC sums up the same curve from the lowest dose to the 256-fold higher top dose; the more sensitive the line, the further below 1. For part of these data: Any top dose called inferred was calculated from the reported fits.
# Key:
# Assay in all cases: Viability of human cancer cell lines after 72 h of drug (GDSC screen)
# Dabrafenib = compound: CC(C)(C)c1nc(-c2cccc(NS(=O)(=O)c3c(F)cccc3F)c2F)c(-c2ccnc(N)n2)s1 [Dabrafenib]; conditions: top dose 10 µM
# Description: (§1)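 Human cancer cell lines in 384-well plates, medium with 10% serum, drug for 72 h over a 256-fold dose range (nine 2-fold or five 4-fold steps up to the top dose). Adherent lines were fixed and stained with the nucleic acid dye Syto60, suspension lines read with resazurin; signal relative to control wells, capped at 0 and 100%. One two-parameter sigmoid per drug and line, fitted in a mixed model over all curves with the slope shared within a line.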
# SN-38 = compound: CCc1c2c(nc3ccc(O)cc13)-c1cc3c(c(=O)n1C2)COC(=O)[C@]3(O)CC [SN-38]; conditions: top dose 0.05 µM; top dose inferred
# Description: as §1
# Methotrexate = compound: CN(Cc1cnc2nc(N)nc(N)c2n1)c1ccc(C(=O)N[C@@H](CCC(=O)O)C(=O)O)cc1 [Methotrexate]; conditions: top dose 0.2 µM
# Description: as §1
# Axitinib = compound: CNC(=O)c1ccccc1Sc1ccc2c(/C=C/c3ccccn3)n[nH]c2c1 [Axitinib]; conditions: top dose 2 µM
# Description: as §1
Cell Line,AUC (Dabrafenib),IC50 (Dabrafenib) [nM],AUC (SN-38),IC50 (SN-38) [nM],AUC (Methotrexate),IC50 (Methotrexate) [nM],AUC (Axitinib),IC50 (Axitinib) [nM]
"SF539 (glioma, adherent)",0.985,> 10000,0.618,6.38,0.988,> 200,–,–
"EKVX (lung adenocarcinoma, adherent)",0.965,> 10000,0.889,> 50,0.832,> 200,–,–
"NCI-H2122 (lung adenocarcinoma, adherent)",–,–,0.617,6.41,–,–,0.959,> 2000
"BT-474 (breast, adherent)",0.946,> 10000,0.95,> 50,–,–,0.983,> 2000
"DU-145 (prostate, adherent)",0.913,> 10000,0.588,5.59,0.918,> 200,–,–
"MDA-MB-453 (breast, adherent)",0.975,> 10000,0.706,12.8,–,–,0.982,> 2000
"8505C (thyroid, adherent)",–,–,0.707,12.5,0.984,> 200,–,–
"OCI-AML2 (acute myeloid leukaemia, suspension)",0.836,4400,0.54,3.9,–,–,0.982,> 2000
"NCI-H322M (lung adenocarcinoma, suspension)",0.974,> 10000,0.968,> 50,0.942,> 200,–,–
"HCC1500 (breast, adherent)",0.985,> 10000,0.798,24.8,–,–,0.975,> 2000
"AsPC-1 (pancreas, adherent)",0.719,4140,0.908,> 50,0.846,> 200,–,–
"TK10 (kidney, adherent)",0.878,> 10000,0.826,39.2,0.981,> 200,–,–
"A375 (melanoma, adherent)",–,–,–,–,0.991,> 200,–,–
"A498 (kidney, adherent)",0.958,> 10000,0.706,16.1,0.96,> 200,–,–
"Raji (Burkitt lymphoma, suspension)",0.982,> 10000,0.47,2.6,–,–,0.988,> 2000
"NCI-H82 (small cell lung carcinoma, suspension)",0.982,> 10000,0.945,> 50,0.619,26.1,–,–
"LoVo (large intestine, adherent)",0.832,6520,0.81,26.7,0.981,> 200,–,–
"NCI-H226 (lung squamous cell carcinoma, adherent)",0.966,> 10000,0.855,43,0.977,> 200,–,–
"RL (B-cell lymphoma, suspension)",0.94,> 10000,0.931,> 50,–,–,0.963,> 2000
"HCT-15 (large intestine, adherent)",0.944,> 10000,0.911,> 50,0.679,40.9,–,–
"CAPAN-1 (pancreas, adherent)",–,–,0.788,24.6,0.987,> 200,–,–

Cell Line,AUC (Dabrafenib),IC50 (Dabrafenib) [nM],AUC (SN-38),IC50 (SN-38) [nM],AUC (Methotrexate),IC50 (Methotrexate) [nM],AUC (Axitinib),IC50 (Axitinib) [nM]
"OCI-AML3 (acute myeloid leukaemia, suspension)",0.881,7930,0.633,6.86,0.755,59.1,–,–
"NCI-H1417 (small cell lung carcinoma, suspension)",0.571,1020,0.255,0.534,–,–,0.888,> 2000
"SF295 (glioma, adherent)",0.959,> 10000,0.718,13.7,0.977,> 200,–,–
"MIA-PaCa-2 (pancreas, adherent)",–,–,0.422,1.87,0.96,> 200,–,–
"SK-OV-3 (ovary, adherent)",0.884,> 10000,0.715,15,0.969,> 200,–,–
"SK-MEL-5 (melanoma, adherent)",0.366,245,0.734,17.2,0.98,> 200,–,–
"NOMO-1 (acute myeloid leukaemia, suspension)",0.874,> 10000,0.717,14.2,–,–,0.844,1720
"OV-90 (ovary, adherent)",0.124,< 39.1,0.814,37.2,–,–,0.939,> 2000
"HOP-62 (lung adenocarcinoma, adherent)",0.982,> 10000,0.402,1.68,0.967,> 200,–,–
"FADU (head and neck, adherent)",–,–,0.277,0.748,–,–,0.943,> 2000
"Daudi (Burkitt lymphoma, suspension)",0.921,> 10000,0.641,7.23,–,–,0.991,> 2000
"SW620 (large intestine, adherent)",0.951,> 10000,0.476,2.7,0.982,> 200,–,–
"KU812 (chronic myeloid leukaemia, suspension)",0.669,1760,0.797,21.3,0.827,108,–,–
"SW48 (large intestine, adherent)",0.957,> 10000,0.516,3.46,0.986,> 200,–,–
"RPMI-8226 (myeloma, suspension)",0.952,> 10000,0.897,48,0.608,23.7,–,–
"UACC-62 (melanoma, adherent)",0.102,< 39.1,0.546,4.16,0.986,> 200,–,–
"NCI-H358 (lung adenocarcinoma, adherent)",–,–,0.764,20.1,–,–,0.954,> 2000
"A431 (skin, adherent)",–,–,0.515,3.43,–,–,0.966,> 2000
"UACC-257 (melanoma, adherent)",0.146,< 39.1,0.85,> 50,0.982,> 200,–,–
"U-87-MG (glioma, adherent)",0.937,> 10000,0.33,0.962,0.983,> 200,–,–
"HOP-92 (large cell lung carcinoma, adherent)",0.955,> 10000,0.594,5.92,0.984,> 200,–,–

Cell Line,AUC (Dabrafenib),IC50 (Dabrafenib) [nM],AUC (SN-38),IC50 (SN-38) [nM],AUC (Methotrexate),IC50 (Methotrexate) [nM],AUC (Axitinib),IC50 (Axitinib) [nM]
"OVCAR-4 (ovary, adherent)",0.962,> 10000,0.819,49.3,0.955,> 200,–,–
"ACHN (kidney, adherent)",0.674,2050,0.544,4.19,0.81,124,–,–
"CAL-27 (head and neck, adherent)",0.922,> 10000,0.482,2.79,0.94,> 200,–,–
"MEG-01 (chronic myeloid leukaemia, suspension)",0.618,1290,0.898,> 50,0.647,31.1,–,–
"NCI-H460 (large cell lung carcinoma, adherent)",0.976,> 10000,0.623,6.59,0.737,54.8,–,–
"NCI-H441 (lung adenocarcinoma, adherent)",–,–,0.673,11.6,–,–,0.98,> 2000
"BxPC-3 (pancreas, adherent)",0.941,> 10000,0.748,17.9,0.964,> 200,–,–
"CAKI-1 (kidney, adherent)",0.861,> 10000,0.615,7.56,0.883,> 200,–,–
"KM12 (large intestine, adherent)",0.94,> 10000,0.953,> 50,0.818,125,–,–
"U251 (glioma, adherent)",0.971,> 10000,0.255,0.648,0.987,> 200,–,–
"A2780 (ovary, semi-adherent)",0.958,> 10000,0.966,> 50,–,–,–,–
"OSC-19 (head and neck, adherent)",0.969,> 10000,0.755,17.5,–,–,–,–
"SW900 (lung squamous cell carcinoma, adherent)",0.977,> 10000,0.777,23.4,–,–,–,–
"HL-60 (acute myeloid leukaemia, suspension)",0.986,> 10000,0.774,17.6,–,–,–,–
"OAW-28 (ovary, adherent)",0.98,> 10000,0.521,3.61,–,–,–,–
"SK-CO-1 (large intestine, adherent)",0.942,> 10000,0.334,1.11,–,–,–,–
"H2810 (mesothelioma, adherent)",0.954,> 10000,0.811,30.1,–,–,–,–
"IST-MES1 (mesothelioma, adherent)",0.984,> 10000,0.749,16.3,–,–,–,–
"J82 (bladder, adherent)",0.987,> 10000,0.504,3.2,–,–,–,–
"M14 (melanoma, adherent)",–,–,0.7,11.8,0.953,> 200,–,–
"SW1116 (large intestine, adherent)",0.93,> 10000,0.944,> 50,–,–,–,–

Cell Line,AUC (Dabrafenib),IC50 (Dabrafenib) [nM],AUC (SN-38),IC50 (SN-38) [nM],AUC (Methotrexate),IC50 (Methotrexate) [nM],AUC (Axitinib),IC50 (Axitinib) [nM]
"ES3 (Ewing sarcoma, adherent)",0.813,5760,0.337,1.07,–,–,–,–
"HuH-7 (liver, adherent)",0.854,7840,0.793,22.8,0.959,> 200,–,–
"SW1088 (glioma, adherent)",0.936,> 10000,0.793,30.7,–,–,–,–
"U031 (kidney, adherent)",0.789,4580,0.356,1.23,–,–,–,–
"KP-4 (pancreas, adherent)",0.982,> 10000,0.533,3.82,–,–,–,–
"TCCSUP (bladder, adherent)",0.982,> 10000,0.793,26.5,–,–,–,–
"A172 (glioma, adherent)",0.933,> 10000,0.728,13.5,–,–,–,–
"LC-2-ad (lung adenocarcinoma, adherent)",0.966,> 10000,0.378,1.42,–,–,–,–
"T47D (breast, adherent)",0.932,> 10000,0.817,> 50,0.977,> 200,–,–
"SNB75 (glioma, adherent)",0.974,> 10000,0.745,22.3,0.979,> 200,–,–
"HCC2998 (large intestine, adherent)",–,–,0.587,5.36,0.84,132,–,–
"KYSE-180 (oesophagus, adherent)",0.987,> 10000,0.84,32.3,–,–,–,–
"NCI-H196 (small cell lung carcinoma, adherent)",0.932,> 10000,0.947,> 50,–,–,–,–
"SF268 (glioma, adherent)",0.953,> 10000,0.465,2.49,0.955,> 200,–,–
"OVCAR-5 (ovary, adherent)",0.931,> 10000,0.757,20.4,0.981,> 200,–,–
"Hs-445 (Hodgkin lymphoma, suspension)",0.936,> 10000,0.404,1.74,–,–,–,–
"Jurkat (T-cell leukaemia, suspension)",0.916,> 10000,0.426,2.04,–,–,–,–
"SK-MEL-2 (melanoma, adherent)",0.708,2470,0.781,21.5,0.985,> 200,–,–

# Source: the supplement of paper PMC4967469
